Laboratory results published in PubChem BioAssay (NCI).
Values joined by “and” are separate entries in the source; they are usually repeats but may differ in a detail not shown here. Equal entries are not always repeated.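 96-well plates; 48 h exposure; 5 concentrations. Endpoints by linear interpolation between flanking doses. Not reached: highest tested concentration assigned. GI50 marks 50% less growth. TGI denotes the concentration required for complete inhibition of growth.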

Test system: NCI-H322M lung
Assay: NCI-60 cell line screen, 48 h

SMILES | TGI | GI50
CC(=O)C(N1CCCCC1)C(O)(C(F)(F)F)C(F)(F)F (stereo not given) | > 100 µM | 
Cc1ccc2nc(NC(=O)C(=O)C(C(=O)c3ccc4ccccc4c3)C3OC(=O)c4ccccc43)sc2c1 (stereo not given) | 91.7 µM | 
Clc1ccc(-c2cc(-c3ccccc3)nc(N3CCN(CCCNc4ccnc5cc(Cl)ccc45)CC3)n2)cc1 | 2.9 µM | 1.54 µM
c1ccc(CN2CCC(=NN3CCCCC3)CC2)cc1 | > 100 µM | 
C/C=C1/CN2CCC34C(=C(C(=O)OC)C1CC23)Nc1ccc(O)cc14 (stereo not given) | > 100 µM | 
C[C@@H](O)[C@@H](C)Oc1nc(Nc2ccc(S(=N)(=O)C3CC3)cc2)ncc1C(F)(F)F (stereo not given in full) | 2.88 µM | 0.0316 µM
N#Cc1ncc(C(Cl)Cl)nc1Cl | > 10 µM | 
O=[N+]([O-])c1ccc(CSc2nn(Cc3ccc([N+](=O)[O-])cc3)cc3ncnc2-3)cc1 | > 100 µM | 
c1ccc(-c2csc3c2-n2cccc2C3N2CCCC2)cc1 (stereo not given) | > 100 µM | 
NCCOc1ccc(/C(=C(/Cl)c2ccccc2)c2ccccc2)cc1 | 27.5 µM | 
CCOC(=O)c1c(N2CCCC2)[nH]c(=O)c(C(c2c(O)c(C(=O)OCC)c(N3CCCC3)[nH]c2=O)C(C)C)c1O | > 100 µM | 
Cc1noc2cccc(O)c12 | > 100 µM | 
N=c1c2sc3nc4ccccc4n3c2ncn1Cc1ccccc1 | > 100 µM | 
O=C1/C(=C/c2cccnc2)SC(=S)N1Cc1ccco1 | > 100 µM | 
CCOC(=O)Cc1c(C)c2ccc(OC(C)=O)c(OC(C)=O)c2oc1=O | 89 µM | 
Cc1ccc(C2(O)c3ccccc3C(=O)N(C)C2(O)c2ccc(C)cc2)cc1 (stereo not given) | > 100 µM | 
Clc1ccc(Nc2ncco2)cc1Cl | > 10 µM | 
CN(C(=O)[C@H](NC(=O)OCc1ccccc1)c1ccccc1)C1CCCCC1N1CCCC1 (stereo not given in full) | > 100 µM | 
CCCCCCCCCCC(=O)CCCCCCC(=O)O | 59.6 µM | 
CC1CC(=O)Nc2ccc(Cl)cc2N1C(=O)CN1CCC(CCCCN(C)C)CC1 (stereo not given) | > 100 µM | 
COc1c(C)c(C/C=C(\C)CC/C=C(\C)CC/C=C(\C)CCC=C(C)C)c(OC)c(OC)c1OC | > 100 µM | 
OCC#CCOCC#Cc1ccccc1C#CCOCC#CCO | > 100 µM | 38.8 µM
COC(=O)[C@H](CNC(=O)/C=C/c1ccc(OC(C)=O)c(OC(C)=O)c1)NC(=O)/C=C/c1ccc(OC(C)=O)c(OC(C)=O)c1 | > 100 µM | 
Nc1nc(=O)n(C2CC(O)C(CO)O2)cc1F (stereo not given) | > 100 µM | > 71.5 µM
O=Cc1c2c(cc3c1CC1(C3)Cc3cc4c(c(C=O)c3C1)CCCC4)CCCC2 | > 31.6 µM | 

SMILES | TGI | GI50
Nc1nc(Cl)cc(NCC2(CO)CCCCC2)n1 | > 100 µM | 
CC1(CO)C(O)CCC2(C)C1CCC1CC3CC12CCC3(O)CO (stereo not given) | > 100 µM | 
N/C(=N\N=C\c1cc2ccccc2s1)c1cnccn1 | > 100 µM | 
COC1(OC)CC2C(=O)N(Cc3ccccc3)C1C(S(=O)(=O)c1ccccc1)C2C(C)S(=O)(=O)c1ccccc1 (stereo not given) | > 100 µM | 
COc1ccccc1C1C2=C(COC2=O)Oc2cc3c(cc21)OCO3 (stereo not given) | > 69.5 µM | 
CN1C(=O)N(C)C2(CCN(CC(CC3OCCO3)c3ccc(F)cc3)CC2)C1=O (stereo not given) | > 100 µM | 
CC1CC(C[N+](=O)[O-])CC2(C1)OCCO2 (stereo not given) | > 100 µM | 
CC(=O)NNc1nc(C)c(C(=O)NNC(=O)C(=O)Nc2ccc(Cl)c([N+](=O)[O-])c2)s1 | > 100 µM | 
N#C/C(=C\c1ccc(O)c(O)c1)c1c(C#N)c(N)nn1-c1ccccc1 | 87.2 µM | 
CCOC(=O)NN(C(=O)OCC)c1ccc(N=Nc2ccc(OC)cc2)n1C | 98 µM | 
Cc1ccccc1/C=C/c1csnn1 | > 100 µM | 
O=C1c2ccccc2N=C(c2cc3c(cc2Cl)Sc2nccn2S3(=O)=O)OS(=O)(=O)N1c1ccccc1 | > 100 µM | 
O=c1oc2cc(O)ccc2c2[nH]c3cc(O)ccc3c12 | 87.4 µM | 
COc1ccc(/C=C2/N=C(N/N=C\C(O)C(O)C(O)CO)NC2=O)cc1 (stereo not given) | > 100 µM | 
Cc1cc(F)c(C(=O)Nc2cccc(-c3nncn3C(C)C)n2)cc1-n1cnc(C2CC2)c1 | 76.1 µM | 14.8 µM
COc1ccc2[nH]c(Cl)c(/C=C3/C(=O)Nc4ccccc43)c2c1 | 13.7 µM | 4.69 µM
O=C(CCc1nc(=S)[nH][nH]1)Nc1cc(Cl)ccc1Cl | > 100 µM | 
Cc1nnc(C[C@@H]2C=C(c3ccc(Cl)cc3)c3ccccc3-n3c(C)nnc32)o1 | > 100 µM | 2.28 µM
C/C=C1\CC(C(=O)OCC)CCCCCCC1=O (stereo not given) | > 100 µM | 
CC1(C)OB(c2ccc(N(CCOS(C)(=O)=O)CCOS(C)(=O)=O)cc2)OC1(C)C | > 100 µM | 46.4 µM
CCN(CC)CC1CCCCN1CC(=O)N1c2cc(Cl)ccc2NC(=O)CC1C (stereo not given) | > 100 µM | 
COc1ccc(-c2nc(-c3ccc(OC)cc3)n(-c3ccccc3)n2)cc1 | > 100 µM | 
c1ccc2c(c1)[nH]c1cnc3c4ncccc4[nH]c3c12 | > 100 µM | 
N#CCc1c(F)c(F)c(F)c(F)c1F | > 100 µM | 
Nc1nc(N)c2c(n1)NC(c1sc(Cl)nc1Cl)CC(c1ccccc1)=N2 (stereo not given) | 24.1 µM | 11.8 µM

SMILES | TGI | GI50
O=C(N/N=C(/COc1ccccc1)N=Cc1ccncc1)c1ccncc1 | > 100 µM | 
CC12NC(=C(C#N)C#N)C(C#N)=C3NC(N)=C(C#N)C(=C31)Oc1ccccc12 (stereo not given) | > 100 µM | 
C[C@@H](C1CC[C@H]2[C@@H]3[C@@H]4O[C@@H]4[C@@]4(O)CC=CC(=O)[C@]4(C)[C@H]3C[C@H](O)[C@]12C)[C@H]1C[C@]2(C)O[C@]2(C)C(=O)O1 (stereo not given in full) | > 100 µM | 
CC(=O)Nc1ccc(NC(=O)CC(=O)Nc2ccc(NC(C)=O)cc2)cc1 | > 100 µM | 
COc1ccc(CN(CCN(C)C)c2ccccn2)cc1 (tested in a mixture with another compound) | > 100 µM | 
CC/C=C\C[C@H]1C/C=C2/C(=O)C=C[C@H]2C/C=C\CCCC(=O)O1 | 11.5 µM | 5.34 µM
Cc1cc2c(cc1Cl)SC(N(c1ccccc1Cl)S(=O)(=O)c1ccc(Br)s1)=NS2(=O)=O | > 100 µM | 31.6 µM
Cc1cc(=O)oc2c(C3=NN(C=O)C(c4ccccc4)C3)c(O)ccc12 (stereo not given) | > 100 µM | 
Cc1cccc2c(C3=C(c4cn(C)c5ccccc45)C(=O)NC3=O)cn(C)c12 | > 25 µM | > 25 µM
Cc1cccc(C(C)(C)C)c1NC(=O)C(C#N)C1=C(Cl)C(=O)c2ccccc2C1=O (stereo not given) | 38.9 µM | 
Cc1ccc(Nc2c3c(c(C#N)c4nc5ccccc5n24)CCCC3)cc1 | > 100 µM | 
C=CC(=O)N[C@@H]1CN(c2nc(Nc3cn(C)nc3OC)c3ncn(C)c3n2)C[C@H]1F | 20.8 µM | 0.152 µM
C/C(=C1/N=C(c2cc([N+](=O)[O-])ccc2Cl)N(c2ccc(Br)cc2)C1=O)c1ccc(N(CCC#N)CCC#N)cc1C | > 100 µM | 
NC(Cc1ccc(O)cn1)C(=O)NC(C(=O)O)c1ccccc1 (stereo not given) | > 100 µM | 
CN(C)c1ccc(/C=C/C(=O)c2ccc(Nc3nc(Nc4ccc(F)cc4)nc(Nc4ccc(F)cc4)n3)cc2)cc1 | > 100 µM | 32.8 µM
CN(C)c1ccc(C(=S)c2ccc(N(C)C)cc2)cc1 | > 100 µM | 58.6 µM
O=C([CH-]C(=O)c1ccccc1)c1ccccc1.[C-]#[O+].[C-]#[O+].[Ir] | 35.7 µM | 0.581 µM
CN1CCN(CCCOc2cccc3nc(Nc4cc(Cl)cc(Cl)c4)ccc23)CC1 | 3.16 µM | 1.56 µM
Cc1cccc2c(N)c3cccc(C(=O)NCC[N+](C)(C)Cc4ccc([N+](=O)[O-])n4C)c3nc12 | 70.9 µM | 
c1ccc(-c2cnc(SC(c3ccccc3)c3ccccc3)[nH]2)cc1 | > 100 µM | 
N#CCCN(CCC#N)c1ccc(/C=C(/NC(=O)c2cc([N+](=O)[O-])ccc2Cl)C(=O)N=[N+]=[N-])cc1 | > 100 µM | 
C[C@@H]1CC[C@H]2[C@@H](C)C(O)O[C@@H]3O[C@]4(C)CC[C@@H]1[C@]32OO4 (stereo not given in full) | > 100 µM | 13.1 µM
COC(=O)c1cc(-c2ccc3ccccc3c2)[nH]c(=O)c1C#N | > 100 µM | 
CCOC(=O)c1oc2c(OC)ccc3c2c1CCC3 | > 100 µM | 
CC(=O)OCCOCn1c2ccccc2c2c3c(c4c5ccccc5n(COCCOC(C)=O)c4c21)C(=O)N(Cc1ccccc1)C3=O | > 100 µM | 

SMILES | TGI | GI50
CCOC(=O)/C=C/n1c2ccccc2c(=O)c2cc(OC)ccc21 | > 100 µM | 
c1ccc2c(c1)nnn2CNc1ccc(N2CCCCC2)cc1 | > 100 µM | 
NC1=NN(c2ccccc2)C(=O)C1C(=O)C(=O)Nc1ccc(Cl)cc1 (stereo not given) | > 100 µM | 
O=C(NN1C(=O)C(Cl)C1c1cccc(O)c1)c1ccccc1O (stereo not given) | > 100 µM | 
O=C(NCCCCCCCCCCCCNC(=O)c1cnc2ccccc2n1)c1cnc2ccccc2n1 | > 100 µM | 
CN(C)CCCNC(=O)N/N=C/c1ccc(O)cc1 | > 100 µM | 
O=C1C=CC2(CCCCCCC2=O)CC1 (stereo not given) | > 100 µM | 
CC(=O)O[C@@H]1[C@H](OC2CCCCC2(c2ccccc2)c2ccccc2)O[N+]([O-])=CC12CCCCC2 (stereo not given in full) | 30.3 µM | 
COc1ccc(C(c2ccccc2C(=O)O)c2ccc(OC)c3ccccc23)c2ccccc12 | 29 µM | 
COc1cc2c(Oc3ccc(NC(=O)C4(C(=O)Nc5ccc(F)cc5)CC4)cc3F)ccnc2cc1OCCCN1CCOCC1 | 6.18 µM and > 8.07 µM | 1.91 µM and 1.87 µM
O=[N+]([O-])c1cc(C2(N3CCCCC3)CCCCC2)sc1Br | 25.7 µM | 
COc1ccc(C=Nc2ccc(-c3nc4ccccc4s3)cc2)cc1OC | > 100 µM | 
Cc1ccc2nc(N)[nH]c(=O)c2c1Sc1ccncc1 | > 100 µM | 
CC(NC(=O)Cc1ccc(OP(=O)(OCc2ccc([N+](=O)[O-])o2)N(C)CCCCCl)cc1)c1ccc(OCC2CCCCC2)c(C(N)=O)c1 (stereo not given) | 7.71 µM | 
CC(C)C[S+]1C2=C([O-])CC(C)(C)CC2=Nc2ccccc21 (stereo not given) | > 100 µM | 
CCOC(=O)Oc1cc2ccsc2c2c1c1ccccc1n2C(=O)OCC | > 100 µM | 
O=C(COc1ccc(/C=C2\Oc3ccc4ccccc4c3C2=O)cc1)c1ccc([N+](=O)[O-])cc1 | > 100 µM | 88.9 µM
CC(=N/NC(=S)N1CCCCCC1)/C(C)=N\NC(=S)N1CCCCCC1 | 11.6 µM | 
Oc1ccc(NC(=S)Nc2ccccc2)cc1 | > 100 µM | > 100 µM
CCCCC(C(=O)C(=O)Nc1ccc(C)cc1C)C(=O)C(C)C (stereo not given) | > 100 µM | 
CC(=O)c1ccc(N2C(=O)C3c4[nH]c5ccccc5c4C4CCC(C(C)(C)C)CC4C3C2=O)cc1 (stereo not given) | > 100 µM | 
O=C1CC(c2ccc(Cl)cc2)C2(C(=O)NC(=S)NC2=O)C(c2ccc(Cl)cc2)C1 (stereo not given) | 37.3 µM | 
CC(=O)N[C@H](C)[C@@H](O)[C@@H](C)[C@@H]1OC(=O)/C=C/C=C(C)\C=C\[C@]2(C)C[C@@H](NS(C)(=O)=O)C=C[C@@H]2/C=C(C)/C=C/[C@H]1C | > 43.5 µM | 
COc1ccccc1N1CCN(CCCCNC(=O)c2ccc([N+](=O)[O-])o2)CC1 | 23.1 µM | 
